# Reference: PubChem BioAssay AID686979 (National Center for Advancing Translational Sciences (NCATS), 2013)
# “And” between values parts separate entries of the source, which are not always exact repeats. Identical values can stand only once. About 50,000 (12%) of roughly 420,000 compounds were called active. The shares of active, inactive and inconclusive entries below differ from those in the screen. Calls follow the shape of the dose curve; as a rule, active = well fitted inhibition curve with a large enough effect; inconclusive = small, poorly fitted or top-dose-only effect; inactive = flat fitted curve, though single readings scatter. A potency beside an inconclusive call is a rough fit, not a confirmed value.
# Experiment: qHTS for Inhibitors of human tyrosyl-DNA phosphodiesterase 1 (TDP1): qHTS in cells in presence of CPT; also: nearly all actives have a fitted effect of over 55% in size
# Conditions: chicken DT40 Tdp1-/-;hTDP1 cells + 20 nM CPT, ATP luminescence, 48 h; activity change, negative = growth inhibition: at 46.2 µM (top of the series) unless noted
# How it was run: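 Chicken DT40 Tdp1-/- cells stably complemented with human TDP1 were seeded at 400 cells/well in medium containing 20 nM camptothecin, exposed to pin-transferred compounds, and grown at 37 °C for at least 48 hr. Viability was read as ATP luminescence.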
# % is scaled to controls: 0 for no effect and ±100 for the full control effect; potency is read from the fitted curve at half-maximal effect; tags tell the direction and shape of the fitted curve.
Structure (SMILES),Potency,"activity change, negative = growth inhibition"
CC(=O)OC/C=C(\C)CCC=C(C)C,"inconclusive: 23.1 µM [inhibitor, single point]",
CC(Sc1ccccn1)C(=O)Nc1ccc2c(c1)OCCO2 (stereo not given),,inactive: 1.01%
O=C(Nc1ccc(Cl)cc1)C1CCN(S(=O)(=O)c2ccc(Br)s2)CC1,"inconclusive: 23.1 µM [inhibitor, single point]",
CCC1Oc2ccccc2N(CC(=O)NCCCN2CCC(C)CC2)C1=O (stereo not given),"inconclusive: 29.1 µM [inhibitor, single point]",
O=C(COC(=O)Cc1c[nH]c2ccccc12)Nc1ccc(Cl)cc1,,inactive: 12.1%
Cc1ccc(-c2nnc(SCC(=O)N/N=C/c3c(C)nn(-c4ccccc4)c3C)n2-c2ccc(C)cc2)cc1,"inconclusive: 29.1 µM [inhibitor, single point]",
Cc1ccc(C)c(NC(=S)N(Cc2ccco2)C(C)c2cccs2)c1 (stereo not given),,inactive: -4.73%
COc1ccccc1C1CC(=O)Oc2c(C(C)C)ccc(C)c21 (stereo not given),,inactive: -10.8%
CC(CNC(=O)CN1C(=O)COc2ccc(S(=O)(=O)N3CCCCC3)cc21)c1ccccc1 (stereo not given),"inconclusive: 29.1 µM [inhibitor, single point] and inconclusive: 23.1 µM [inhibitor, single point]",
CCOC(=O)c1[nH]ncc1CN1CCCC(C(=O)c2ccc(C(C)(C)C)cc2)C1 (stereo not given),"inconclusive: 29.1 µM [inhibitor, single point]",
C#Cc1cccc(Nc2nc(NC(C)C)nc3ccsc23)c1,"inconclusive: 18.4 µM [inhibitor, single point]",
Cc1ccc(-n2ncc(C(=O)NCCCN3CCc4ccccc4C3)c2C2CCN(C(=O)OC(C)(C)C)CC2)cc1C,"inconclusive: 18.4 µM [inhibitor, single point]",
CC(C)c1cc(N2CCN(C(=O)c3ccco3)CC2)n2c(nc3ccccc32)c1C#N,active: 14.6 µM,
COc1ccccc1NS(=O)(=O)c1ccc(S(=O)(=O)N2CCOCC2)cc1,,inactive: 7.09%
NS(=O)(=O)c1ccc(CNC(=O)c2csc3c2CCCC3)cc1,,inactive: -20%
CC1(c2ccc(C#N)cc2)NC(=O)N(CC(=O)Nc2cc(S(=O)(=O)N3CCOCC3)ccc2Cl)C1=O (stereo not given),"inconclusive: 23.1 µM [inhibitor, single point]",
CCNC(=O)C(=O)NCc1ccncc1,,inactive: -0.956%
CC1CN(C(=O)Nc2ccc(C(=O)NCCc3ccccc3Cl)cc2)c2ccccc2S1 (stereo not given),active: 23.1 µM,
CCOC(=O)c1c(C)[nH]c(N=Nc2ccc(C)cc2C)c1C,"inconclusive: 23.1 µM [inhibitor, single point]",
COc1ccc(-n2c(C)cc(C(=O)Cn3nnc4ccccc4c3=O)c2C)cc1,active: 20.6 µM,
